Measurements taken from the RNAGym collection of RNA variant scans (doi:10.7554/elife.90254).
The source gives no read counts; variants with many changes may rest on few reads.

B1: LINE1-mini (parent)
chain: GGCAGAGCUCAACACAGCGUGGCAAAGUGGCUGUGGCUAGACUGCC

Variants of: B1
Assay: self-cleavage, relative activity (ratio to wild type); higher = more cleavage; in vitro, sequencing; the parent is a self-cleaving ribozyme

Row | Variant | self-cleavage
1 | U9A A24U G30A | 0.15
2 | C8U A12G G22U U34G | 0.11
3 | C8U G19A G44C | 0.06
4 | U9C A11G A41U | 0.01
5 | C8U G40C C45G C46A | 0.23
6 | C8U U28C G29U G44A | 0.06
7 | U9A A24U G44C | 0.05
8 | U9C C13U A16C G19U C37A | 0.02
9 | U9C C10A C15U | 0.03
10 | U9A A26C G29A U32C C42U | 0.51
11 | U9C C13U C15U G30A G40C | 0.01
12 | C8U U28C C37G A41U | 0
13 | U9C A11C G19U C46A | 0.06
14 | C8U C10G A24U G35C | 0.01
15 | U9A A26U G30C U32A G40A C46A | 0.36
16 | U9A U28C C37U G40A C46G | 1.02
17 | U9C C18G G40U | 0.04
18 | U9C C15A U38C G40C U43G | 0
19 | C8U A14G A16C U32C | 0.02
20 | C8U G17A G21U G36A A39G | 0.02
21 | U9A C10A G35A A41U G44A | 0.03
22 | U9C C10U G22A C42A | 0.01
23 | C8U U9G C10A G19U | 0.02
24 | U9C A14U A41U | 0.02

Row | Variant | self-cleavage
25 | U9C G17A A25U G33C | 0.01
26 | U9A G36A C42U U43A | 0.29
27 | C8U G21A G33U U43C | 0.11
28 | U9A G21C U28G U38C | 0.01
29 | C8U G30C U38C | 0.03
30 | C8U U9A G22A | 0.03
31 | U9A A16C U32A | 0.04
32 | U9C C13U C45G | 0.04
33 | U9A C15U U28G | 0.36
34 | C8U U9C A24U | 0.11
35 | U9A A12G A39U G44A | 0.01
36 | C8U G21U G36U | 0.12
37 | U9A G36U U38G G40A | 0.02
38 | U9C A11U U20G U32A A41C | 0
39 | U9A C15G G22U U28A C42A | 0.03
40 | C8U C15G G35C | 0.09
41 | C8U C15U C18A A25U G29A C42G | 0.18
42 | C8U A12C C15U | 0.14
43 | C8U C31A C37A | 0.2
44 | U9C C15G G22C G30C | 0.03
45 | C8U G21U C46G | 0
46 | U9C C15G G40A | 0.03
47 | U9C A26C A39C | 0.04
48 | U9A C10U A14U G30U | 0.01

Row | Variant | self-cleavage
49 | C8U G40A C45U | 0.44
50 | C8U G33C G40U A41C | 0.06
51 | U9C C31A G44U | 0.01
52 | C8U C31G G36U | 0.15
53 | C8U G17C A24U G27A | 0.11
54 | U9C A26C A41G C42U | 0.02
55 | U9C C31U U43C | 0.02
56 | U9A G27U U34A G40U | 0.05
57 | C8U C10A G29A | 0.04
58 | U9C C13U G29U | 0.05
59 | C8U C15A C42G | 0.04
60 | C8U G17C U20C C31G A41C | 0.01
61 | C8U U28G C31G G44C | 0.01
62 | C8U C15A G17C U20C G30U U34A | 0.2
63 | U9A G35C G36C C42U | 0.01
64 | U9C A11G A26G G35C U38C C42G | 0
65 | U9A G27A G35A | 0.42
66 | U9C C18A A26G | 0.08
67 | U9C A11G U28G | 0.04
68 | C8U C15U A25U U32A | 0.02
69 | U9A G29C G36A U43G C45U | 0.05
70 | U9C A16G U20C G29A | 0.01
71 | C8U A16G C31A G33A C37U | 0.28
72 | C8U C15U G33U C46A | 0.02

Row | Variant | self-cleavage
73 | U9C C18G C42U G44C | 0.02
74 | C8U C18G G44A | 0.3
75 | U9A G17A C31U | 0.01
76 | U9A C18G G44U C46A | 0.02
77 | U9A A12C C31U | 0.04
78 | U9A A16U C37G U38A | 0.04
79 | U9C A12U C42G G44U | 0.03
80 | U9C A11G C42G | 0.02
81 | U9C C18U G19A G21U A25G G29U C31U | 0
82 | U9A A11U C13A C23G G36A C37U C45U | 0.02
83 | C8U A26U G29C C31U C42G | 0.16
84 | U9C C10G G19A C42G | 0.01
85 | C8U G22U G44A | 0.04
86 | U9C A24C G30A U34A | 0.02
87 | C8U U9G G29U | 0.1
88 | U9A G19A G21A | 0.16
89 | C8U C18A C42U | 0.04
90 | C8U U28A C31U | 0.18
91 | U9A A12G A41G | 0.03
92 | C8U G35C G36A | 0.1
93 | U9A U20C G21U U38A G44C | 0.02
94 | U9C A16U G40A | 0.02
95 | U9C C18U U28C A41G C46U | 0.02
96 | C8U U20C A25G G27U G35A | 0.22

Row | Variant | self-cleavage
97 | C8U C31G A41C | 0.08
98 | C8U C10G A16G G33U | 0.01
99 | C8U C13G C46U | 0.08
100 | C8U C13G C46A | 0.06
101 | U9A A11G G29A C46G | 0.02
102 | U9A C23A C42U | 0.03
103 | U9A C10U A11C A12G | 0
104 | U9A G17A A24C G33A C45U C46U | 0.09
105 | U9A A16G C23U A24U A25C U34G | 0.06
106 | U9A U20A G29A G30A | 0.06
107 | U9A G21C A25C | 0.21
108 | C8U C10A G30U | 0.02
109 | U9A G22A G30A C46G | 0
110 | U9A A16C A26C | 0.07
111 | U9A C15A U20A | 0.21
112 | C8U A14G C15U C42A | 0.14
113 | C8U U9A A41U C46A | 0.11
114 | U9A A24U U34C | 0.02
115 | U9A C10G C18U G40A | 0
116 | C8U C18A G19A G27A G35U | 0.61
117 | U9A A16C G17A C23G G29A | 0.14
118 | U9C C18A G36A U38C | 0.02
119 | C8U C15U G22C G30C U38A | 0.13
120 | C8U G30C G40C | 0.07

Row | Variant | self-cleavage
121 | C8U U20G G22U C37U | 0.05
122 | U9A C15A G22A | 0.1
123 | U9A A12C G19A A26C G30U | 0.02
124 | C8U G17A A41U | 0.02
125 | U9A G36A G40U | 0.33
126 | U9C C13U U20C | 0.02
127 | U9C A12U G17A | 0.02
128 | U9A A14U A16G G30U | 0.14
129 | U9A C10A G27A G36A A41U | 0.01
130 | U9C C15G G27A C45A | 0.01
131 | C8U A16C G27C G35A | 0.29
132 | C8U C13U G21U G30C | 0.16
133 | C8U G17U U20C | 0.15
134 | C8U C10G G22A U38A A39U G44U | 0.01
135 | U9A A12U G21U U34A | 0.07
136 | C8U U9G A16G G22A G30C C45U | 0.12
137 | U9A C15A C18G | 0.1
138 | U9C C13U A14U G19A U34C | 0.04
139 | C8U G36C A41U | 0.18
140 | U9C A11G A14C | 0.01
141 | C8U G21U A25U G33C C37A C42G | 0.02
142 | U9C A14U G33C C37G G40A | 0.04
143 | U9A G17A G22U C46A | 0.12
144 | U9A C15U U32C | 0.53

Row | Variant | self-cleavage
145 | U9A G19C A41U C45U | 0.07
146 | C8U U9A G17U G22U U32G | 0.04
147 | U9C A24C C46U | 0.04
148 | U9C A11U A26G | 0.06
149 | U9A C18A U20C G27A C37G | 0.06
150 | U9C C13U G19C G35A | 0.03
151 | C8U A16G A25U G30C G35U C42U | 0.01
152 | U9A A14U C23U C31A C46A | 0.1
153 | C8U C10U C18A C46A | 0.06
154 | C8U G17U A25U A41C | 0.11
155 | U9C A14C C31A C46A | 0.03
156 | C8U G22U G29U | 0.16
157 | U9A G22C U38C | 0.24
158 | C8U G17U C45U | 0.09
159 | U9A A14G A24C | 0.19
160 | C8U G17U C18A G21U G22U C37A U43A G44C | 0
161 | U9A C15U A25U U32G U34A U43C | 0.56
162 | C8U C18A U20A | 0.54
163 | C8U C15A G17A | 0.68
164 | C8U A14C A25C C31G | 0.06
165 | U9C C15U G36A | 0.02
166 | C8U G27U G40U | 0.53
167 | C8U U20C G27U | 0.05
